Data from publication PMC7092493.
Results are given in words; binding and its absence hold for the method and conditions named. In cells and extracts the contact can be indirect. Some entries that bind do so weakly or less than the wild type. Where a sequence is shown, tags or fusion partners need not be part of it.

Chains of the proteins cited; added tags and fusions are not shown.
UniProt Q8TDX7: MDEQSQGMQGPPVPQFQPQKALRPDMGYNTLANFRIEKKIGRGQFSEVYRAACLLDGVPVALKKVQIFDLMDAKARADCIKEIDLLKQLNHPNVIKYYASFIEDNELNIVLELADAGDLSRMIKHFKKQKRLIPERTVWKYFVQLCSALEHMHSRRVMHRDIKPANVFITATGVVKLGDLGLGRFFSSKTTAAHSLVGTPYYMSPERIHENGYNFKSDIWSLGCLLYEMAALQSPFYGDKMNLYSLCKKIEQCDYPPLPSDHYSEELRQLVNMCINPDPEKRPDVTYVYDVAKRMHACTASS

T1: Flag-tagged Codanin-1 (human) (UniProt Q8IWY9)
T1 sequence: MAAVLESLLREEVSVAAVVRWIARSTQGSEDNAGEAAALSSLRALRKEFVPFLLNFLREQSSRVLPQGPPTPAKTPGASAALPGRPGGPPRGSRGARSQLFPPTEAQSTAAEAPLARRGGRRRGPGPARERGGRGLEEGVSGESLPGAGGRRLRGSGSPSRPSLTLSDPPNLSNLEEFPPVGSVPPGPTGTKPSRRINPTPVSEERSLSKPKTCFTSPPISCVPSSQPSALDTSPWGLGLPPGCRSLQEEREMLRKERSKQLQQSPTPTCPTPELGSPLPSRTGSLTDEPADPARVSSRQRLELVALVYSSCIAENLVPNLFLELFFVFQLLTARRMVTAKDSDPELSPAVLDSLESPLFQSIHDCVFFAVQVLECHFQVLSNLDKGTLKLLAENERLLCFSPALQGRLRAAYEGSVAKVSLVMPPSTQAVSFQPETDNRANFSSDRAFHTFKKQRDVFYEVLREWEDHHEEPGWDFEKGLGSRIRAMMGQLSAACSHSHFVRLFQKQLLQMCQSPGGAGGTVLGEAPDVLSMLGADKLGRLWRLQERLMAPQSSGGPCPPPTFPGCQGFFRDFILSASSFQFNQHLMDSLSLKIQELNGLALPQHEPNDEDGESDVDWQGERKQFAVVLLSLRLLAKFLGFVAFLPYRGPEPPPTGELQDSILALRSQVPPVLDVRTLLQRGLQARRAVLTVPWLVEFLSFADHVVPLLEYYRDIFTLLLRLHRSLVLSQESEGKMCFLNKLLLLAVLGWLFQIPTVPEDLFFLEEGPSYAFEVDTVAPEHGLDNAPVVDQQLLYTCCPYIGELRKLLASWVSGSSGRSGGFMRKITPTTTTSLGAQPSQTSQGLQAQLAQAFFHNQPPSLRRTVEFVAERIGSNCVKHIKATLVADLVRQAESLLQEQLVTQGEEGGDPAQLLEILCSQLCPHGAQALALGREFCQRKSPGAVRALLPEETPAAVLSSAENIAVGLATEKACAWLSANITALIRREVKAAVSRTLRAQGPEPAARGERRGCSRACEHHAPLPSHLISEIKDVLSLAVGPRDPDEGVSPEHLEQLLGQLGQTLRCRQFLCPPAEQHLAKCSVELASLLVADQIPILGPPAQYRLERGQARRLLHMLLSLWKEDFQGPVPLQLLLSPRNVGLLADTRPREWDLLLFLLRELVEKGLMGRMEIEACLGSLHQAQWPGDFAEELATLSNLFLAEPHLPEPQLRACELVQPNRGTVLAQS

T2: Codanin-1 protein lacking the last 224 amino acids (human) (UniProt Q8IWY9)
T2 sequence: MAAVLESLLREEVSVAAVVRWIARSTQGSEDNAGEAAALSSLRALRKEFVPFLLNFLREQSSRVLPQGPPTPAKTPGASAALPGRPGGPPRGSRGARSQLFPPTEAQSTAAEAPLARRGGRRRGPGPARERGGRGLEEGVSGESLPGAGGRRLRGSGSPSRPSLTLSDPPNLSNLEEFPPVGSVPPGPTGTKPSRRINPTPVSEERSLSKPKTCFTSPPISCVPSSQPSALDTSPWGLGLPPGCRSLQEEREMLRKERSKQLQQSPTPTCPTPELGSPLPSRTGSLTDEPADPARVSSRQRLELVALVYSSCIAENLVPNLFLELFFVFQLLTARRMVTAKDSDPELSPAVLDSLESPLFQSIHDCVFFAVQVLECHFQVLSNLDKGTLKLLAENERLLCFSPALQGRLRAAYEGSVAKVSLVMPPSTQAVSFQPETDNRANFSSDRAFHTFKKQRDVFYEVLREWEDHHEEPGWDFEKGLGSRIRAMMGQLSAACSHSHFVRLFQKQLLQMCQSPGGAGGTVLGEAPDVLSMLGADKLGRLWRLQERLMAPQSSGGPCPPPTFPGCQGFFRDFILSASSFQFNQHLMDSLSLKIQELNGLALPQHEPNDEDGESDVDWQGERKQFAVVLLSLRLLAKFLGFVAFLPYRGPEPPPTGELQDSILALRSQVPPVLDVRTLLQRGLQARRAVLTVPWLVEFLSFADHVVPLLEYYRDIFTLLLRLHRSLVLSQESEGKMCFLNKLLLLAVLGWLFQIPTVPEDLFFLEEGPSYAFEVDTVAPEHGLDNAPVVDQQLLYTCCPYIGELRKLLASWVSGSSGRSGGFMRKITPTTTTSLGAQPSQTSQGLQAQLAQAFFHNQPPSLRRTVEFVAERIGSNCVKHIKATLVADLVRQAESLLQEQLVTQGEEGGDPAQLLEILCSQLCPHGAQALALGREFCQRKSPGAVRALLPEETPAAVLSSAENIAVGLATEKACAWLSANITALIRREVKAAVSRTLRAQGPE

T3: C-terminal 222 amino acids of Codanin-1 (a.a.1005 to 1227) (human) (UniProt Q8IWY9)
T3 sequence: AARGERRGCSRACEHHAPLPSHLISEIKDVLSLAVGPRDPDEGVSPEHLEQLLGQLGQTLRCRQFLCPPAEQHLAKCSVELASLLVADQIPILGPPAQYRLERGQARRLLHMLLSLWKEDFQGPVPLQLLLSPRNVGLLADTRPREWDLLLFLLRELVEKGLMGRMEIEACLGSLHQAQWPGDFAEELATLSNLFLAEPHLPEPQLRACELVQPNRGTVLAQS

T4: Codanin-1 R1042W mutant protein (human) (UniProt Q8IWY9)
T4 sequence: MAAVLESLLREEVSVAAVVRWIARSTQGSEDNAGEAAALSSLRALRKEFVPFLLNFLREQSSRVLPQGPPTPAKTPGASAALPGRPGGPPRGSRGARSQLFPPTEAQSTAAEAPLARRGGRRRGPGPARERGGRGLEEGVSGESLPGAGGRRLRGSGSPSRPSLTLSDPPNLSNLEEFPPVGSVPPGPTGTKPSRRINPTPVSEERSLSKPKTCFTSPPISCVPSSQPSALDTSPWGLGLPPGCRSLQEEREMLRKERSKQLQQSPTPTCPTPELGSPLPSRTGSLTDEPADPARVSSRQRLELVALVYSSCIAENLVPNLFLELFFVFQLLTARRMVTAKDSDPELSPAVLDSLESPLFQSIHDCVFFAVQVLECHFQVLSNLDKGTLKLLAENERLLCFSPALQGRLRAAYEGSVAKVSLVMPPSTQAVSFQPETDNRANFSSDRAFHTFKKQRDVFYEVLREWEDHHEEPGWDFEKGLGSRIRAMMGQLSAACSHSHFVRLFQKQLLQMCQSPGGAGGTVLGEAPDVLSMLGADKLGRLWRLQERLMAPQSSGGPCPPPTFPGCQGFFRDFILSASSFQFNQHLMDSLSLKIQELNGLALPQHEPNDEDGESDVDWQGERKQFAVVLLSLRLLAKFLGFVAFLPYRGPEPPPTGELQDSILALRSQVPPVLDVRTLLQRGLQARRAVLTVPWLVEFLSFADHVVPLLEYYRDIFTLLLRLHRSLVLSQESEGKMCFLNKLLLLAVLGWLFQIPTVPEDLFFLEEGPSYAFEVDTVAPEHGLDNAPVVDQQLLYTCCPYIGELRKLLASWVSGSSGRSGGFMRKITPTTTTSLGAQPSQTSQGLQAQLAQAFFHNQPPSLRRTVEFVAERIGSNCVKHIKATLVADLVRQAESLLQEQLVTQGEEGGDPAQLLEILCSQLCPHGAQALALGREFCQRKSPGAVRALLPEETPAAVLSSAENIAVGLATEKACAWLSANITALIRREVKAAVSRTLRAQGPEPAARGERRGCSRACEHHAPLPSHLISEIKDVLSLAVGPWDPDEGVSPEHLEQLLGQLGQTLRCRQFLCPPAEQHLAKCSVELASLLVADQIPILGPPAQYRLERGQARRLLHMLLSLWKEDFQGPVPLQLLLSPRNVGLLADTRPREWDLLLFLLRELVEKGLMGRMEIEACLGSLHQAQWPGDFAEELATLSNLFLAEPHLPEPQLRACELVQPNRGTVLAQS

T5: HA-C15Orf41 (human) (UniProt Q9Y2V0)
T5 sequence: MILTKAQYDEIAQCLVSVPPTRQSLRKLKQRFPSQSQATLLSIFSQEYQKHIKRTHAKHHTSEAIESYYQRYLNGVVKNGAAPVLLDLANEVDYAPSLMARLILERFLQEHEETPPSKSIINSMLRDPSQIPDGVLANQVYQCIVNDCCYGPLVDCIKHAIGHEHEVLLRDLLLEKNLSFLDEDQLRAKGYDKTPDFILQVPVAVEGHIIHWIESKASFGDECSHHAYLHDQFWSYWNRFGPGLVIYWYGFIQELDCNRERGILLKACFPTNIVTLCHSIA


What was measured:
[1] = target: T1, Flag-tagged Codanin-1 (human); test: co-IP; HeLa cells co-transfected, lysate (1% TX-100, 100 mM NaCl) precipitated with Flag antibody on protein A-sepharose, 4 °C, Western blot
[2] = target: T2, Codanin-1 protein lacking the last 224 amino acids (human); test: as above
[3] = target: T3, C-terminal 222 amino acids of Codanin-1 (a.a.1005 to 1227) (human); test: as above
[4] = target: T4, Codanin-1 R1042W mutant protein (human); test: as above
HA-C15Orf41 (human) = target: T5, HA-C15Orf41 (human); test: co-IP; reciprocal: HeLa cells co-transfected, lysate precipitated with anti-rabbit HA antibodies on protein A-sepharose, 4 °C, Western blot

binding [1]	binding [2]	binding [3]	binding [4]	binding (HA-C15Orf41 (human))	Molecule
no binding					HA-Nek7 (from UniProt Q8TDX7 1-302) (enzyme)
binds	no binding	binds	binds		HA-C15Orf41 (protein, UniProt Q9Y2V0-1 1-281) MILTKAQYDEIAQCLVSVPPTRQSLRKLKQRFPSQSQATLLSIFSQEYQKHIKRTHAKHHTSEAIESYYQRYLNGVVKNGAAPVLLDLANEVDYAPSLMARLILERFLQEHEETPPSKSIINSMLRDPSQIPDGVLANQVYQCIVNDCCYGPLVDCIKHAIGHEHEVLLRDLLLEKNLSFLDEDQLRAKGYDKTPDFILQVPVAVEGHIIHWIESKASFGDECSHHAYLHDQFWSYWNRFGPGLVIYWYGFIQELDCNRERGILLKACFPTNIVTLCHSIA
				binds	Flag-tagged Codanin-1 (protein, UniProt Q8IWY9-2 1-1227) MAAVLESLLREEVSVAAVVRWIARSTQGSEDNAGEAAALSSLRALRKEFVPFLLNFLREQSSRVLPQGPPTPAKTPGASAALPGRPGGPPRGSRGARSQLFPPTEAQSTAAEAPLARRGGRRRGPGPARERGGRGLEEGVSGESLPGAGGRRLRGSGSPSRPSLTLSDPPNLSNLEEFPPVGSVPPGPTGTKPSRRINPTPVSEERSLSKPKTCFTSPPISCVPSSQPSALDTSPWGLGLPPGCRSLQEEREMLRKERSKQLQQSPTPTCPTPELGSPLPSRTGSLTDEPADPARVSSRQRLELVALVYSSCIAENLVPNLFLELFFVFQLLTARRMVTAKDSDPELSPAVLDSLESPLFQSIHDCVFFAVQVLECHFQVLSNLDKGTLKLLAENERLLCFSPALQGRLRAAYEGSVAKVSLVMPPSTQAVSFQPETDNRANFSSDRAFHTFKKQRDVFYEVLREWEDHHEEPGWDFEKGLGSRIRAMMGQLSAACSHSHFVRLFQKQLLQMCQSPGGAGGTVLGEAPDVLSMLGADKLGRLWRLQERLMAPQSSGGPCPPPTFPGCQGFFRDFILSASSFQFNQHLMDSLSLKIQELNGLALPQHEPNDEDGESDVDWQGERKQFAVVLLSLRLLAKFLGFVAFLPYRGPEPPPTGELQDSILALRSQVPPVLDVRTLLQRGLQARRAVLTVPWLVEFLSFADHVVPLLEYYRDIFTLLLRLHRSLVLSQESEGKMCFLNKLLLLAVLGWLFQIPTVPEDLFFLEEGPSYAFEVDTVAPEHGLDNAPVVDQQLLYTCCPYIGELRKLLASWVSGSSGRSGGFMRKITPTTTTSLGAQPSQTSQGLQAQLAQAFFHNQPPSLRRTVEFVAERIGSNCVKHIKATLVADLVRQAESLLQEQLVTQGEEGGDPAQLLEILCSQLCPHGAQALALGREFCQRKSPGAVRALLPEETPAAVLSSAENIAVGLATEKACAWLSANITALIRREVKAAVSRTLRAQGPEPAARGERRGCSRACEHHAPLPSHLISEIKDVLSLAVGPRDPDEGVSPEHLEQLLGQLGQTLRCRQFLCPPAEQHLAKCSVELASLLVADQIPILGPPAQYRLERGQARRLLHMLLSLWKEDFQGPVPLQLLLSPRNVGLLADTRPREWDLLLFLLRELVEKGLMGRMEIEACLGSLHQAQWPGDFAEELATLSNLFLAEPHLPEPQLRACELVQPNRGTVLAQS
